The chains are these.
B1: TBK1, overexpressed in HEK293 cells (enzyme, UniProt Q9UHD2 1-729)
chain: MQSTSNHLWLLSDILGQGATANVFRGRHKKTGDLFAIKVFNNISFLRPVDVQMREFEVLKKLNHKNIVKLFAIEEETTTRHKVLIMEFCPCGSLYTVLEEPSNAYGLPESEFLIVLRDVVGGMNHLRENGIVHRDIKPGNIMRVIGEDGQSVYKLTDFGAARELEDDEQFVSLYGTEEYLHPDMYERAVLRKDHQKKYGATVDLWSIGVTFYHAATGSLPFRPFEGPRRNKEVMYKIITGKPSGAISGVQKAENGPIDWSGDMPVSCSLSRGLQVLLTPVLANILEADQEKCWGFDQFFAETSDILHRMVIHVFSLQQMTAHKIYIHSYNTATIFHELVYKQTKIISSNQELIYEGRRLVLEPGRLAQHFPKTTEENPIFVVSREPLNTIGLIYEKISLPKVHPRYDLDGDASMAKAITGVVCYACRIASTLLLYQELMRKGIRWLIELIKDDYNETVHKKTEVVITLDFCIRNIEKTVKVYEKLMKINLEAAELGEISDIHTKLLRLSSSQGTIETSLQDIDSRLSPGGSLADAWAHQEGTHPKDRNVEKLQVLLNCMTEIYYQFKKDKAERRLAYNEEQIHKFDKQKLYYHATKAMTHFTDECVKKYEAFLNKSEEWIRKMLHLRKQLLSLTNQCFDIEEEVSKYQEYTNELQETLPQKMFTASSGIKHTMTPIYPSSNTLVEMTLGMKKLKEEMEGVVKELAENNHILERFGSLTMDGGLRNVDCL
B2: RIG-I (retinoic acid-inducible gene-I), overexpressed in HEK293 cells (protein, UniProt O95786 1-925)
chain: MTTEQRRSLQAFQDYIRKTLDPTYILSYMAPWFREEEVQYIQAEKNNKGPMEAATLFLKFLLELQEEGWFRGFLDALDHAGYSGLYEAIESWDFKKIEKLEEYRLLLKRLQPEFKTRIIPTDIISDLSECLINQECEEILQICSTKGMMAGAEKLVECLLRSDKENWPKTLKLALEKERNKFSELWIVEKGIKDVETEDLEDKMETSDIQIFYQEDPECQNLSENSCPPSEVSDTNLYSPFKPRNYQLELALPAMKGKNTIICAPTGCGKTFVSLLICEHHLKKFPQGQKGKVVFFANQIPVYEQQKSVFSKYFERHGYRVTGISGATAENVPVEQIVENNDIIILTPQILVNNLKKGTIPSLSIFTLMIFDECHNTSKQHPYNMIMFNYLDQKLGGSSGPLPQVIGLTASVGVGDAKNTDEALDYICKLCASLDASVIATVKHNLEELEQVVYKPQKFFRKVESRISDKFKYIIAQLMRDTESLAKRICKDLENLSQIQNREFGTQKYEQWIVTVQKACMVFQMPDKDEESRICKALFLYTSHLRKYNDALIISEHARMKDALDYLKDFFSNVRAAGFDEIEQDLTQRFEEKLQELESVSRDPSNENPKLEDLCFILQEEYHLNPETITILFVKTRALVDALKNWIEGNPKLSFLKPGILTGRGKTNQNTGMTLPAQKCILDAFKASGDHNILIATSVADEGIDIAQCNLVILYEYVGNVIKMIQTRGRGRARGSKCFLLTSNAGVIEKEQINMYKEKMMNDSILRLQTWDEAVFREKILHIQTHEKFIRDSQEKPKPVPDKENKKLLCRKCKALACYTADVRVIEECHYTVLGDAFKECFVSRPHPKPKQFSSFEKRAKIFCARQNCSHDWGIHVKYKTFEIPVIKIESFVVEDIATGVQTLYSKWKDFHFEKIPFDPAEMSK
B3: MDA5 (melanoma differentiation-associated gene 5), overexpressed in HEK293 cells (protein, UniProt Q9BYX4 1-1025)
chain: MSNGYSTDENFRYLISCFRARVKMYIQVEPVLDYLTFLPAEVKEQIQRTVATSGNMQAVELLLSTLEKGVWHLGWTREFVEALRRTGSPLAARYMNPELTDLPSPSFENAHDEYLQLLNLLQPTLVDKLLVRDVLDKCMEEELLTIEDRNRIAAAENNGNESGVRELLKRIVQKENWFSAFLNVLRQTGNNELVQELTGSDCSESNAEIENLSQVDGPQVEEQLLSTTVQPNLEKEVWGMENNSSESSFADSSVVSESDTSLAEGSVSCLDESLGHNSNMGSDSGTMGSDSDEENVAARASPEPELQLRPYQMEVAQPALEGKNIIICLPTGSGKTRVAVYIAKDHLDKKKKASEPGKVIVLVNKVLLVEQLFRKEFQPFLKKWYRVIGLSGDTQLKISFPEVVKSCDIIISTAQILENSLLNLENGEDAGVQLSDFSLIIIDECHHTNKEAVYNNIMRHYLMQKLKNNRLKKENKPVIPLPQILGLTASPGVGGATKQAKAEEHILKLCANLDAFTIKTVKENLDQLKNQIQEPCKKFAIADATREDPFKEKLLEIMTRIQTYCQMSPMSDFGTQPYEQWAIQMEKKAAKEGNRKERVCAEHLRKYNEALQINDTIRMIDAYTHLETFYNEEKDKKFAVIEDDSDEGGDDEYCDGDEDEDDLKKPLKLDETDRFLMTLFFENNKMLKRLAENPEYENEKLTKLRNTIMEQYTRTEESARGIIFTKTRQSAYALSQWITENEKFAEVGVKAHHLIGAGHSSEFKPMTQNEQKEVISKFRTGKINLLIATTVAEEGLDIKECNIVIRYGLVTNEIAMVQARGRARADESTYVLVAHSGSGVIEHETVNDFREKMMYKAIHCVQNMKPEEYAHKILELQMQSIMEKKMKTKRNIAKHYKNNPSLITFLCKNCSVLACSGEDIHVIEKMHHVNMTPEFKELYIVRENKALQKKCADYQINGEIICKCGQAWGTMMVHKGLDLPCLKIRNFVVVFKNNSTKKQYKKWVELPITFPNLDYSECCLFSDED
B4: IRF7, overexpressed in HEK293 cells (protein, UniProt Q92985 1-503)
chain: MALAPERAAPRVLFGEWLLGEISSGCYEGLQWLDEARTCFRVPWKHFARKDLSEADARIFKAWAVARGRWPPSSRGGGPPPEAETAERAGWKTNFRCALRSTRRFVMLRDNSGDPADPHKVYALSRELCWREGPGTDQTEAEAPAAVPPPQGGPPGPFLAHTHAGLQAPGPLPAPAGDKGDLLLQAVQQSCLADHLLTASWGADPVPTKAPGEGQEGLPLTGACAGGPGLPAGELYGWAVETTPSPGPQPAALTTGEAAAPESPHQAEPYLSPSPSACTAVQEPSPGALDVTIMYKGRTVLQKVVGHPSCTFLYGPPDPAVRATDPQQVAFPSPAELPDQKQLRYTEELLRHVAPGLHLELRGPQLWARRMGKCKVYWEVGGPPGSASPSTPACLLPRNCDTPIFDFRVFFQELVEFRARQRRGSPRYTIYLGFGQDLSAGRPKEKSLVLVKLEPWLCRVHLEGTQREGVSSLDSSSLSLCLSSANSLYDDIECFLMELEQPA
B5: IRF9, overexpressed in HEK293 cells (protein, UniProt Q00978 1-393)
chain: MASGRARCTRKLRNWVVEQVESGQFPGVCWDDTAKTMFRIPWKHAGKQDFREDQDAAFFKAWAIFKGKYKEGDTGGPAVWKTRLRCALNKSSEFKEVPERGRMDVAEPYKVYQLLPPGIVSGQPGTQKVPSKRQHSSVSSERKEEEDAMQNCTLSPSVLQDSLNNEEEGASGGAVHSDIGSSSSSSSPEPQEVTDTTEAPFQGDQRSLEFLLPPEPDYSLLLTFIYNGRVVGEAQVQSLDCRLVAEPSGSESSMEQVLFPKPGPLEPTQRLLSQLERGILVASNPRGLFVQRLCPIPISWNAPQAPPGPGPHLLPSNECVELFRTAYFCRDLVRYFQGLGPPPKFQVTLNFWEESHGSSHTPQNLITVKMEQAFARYLLEQTPEQQAAILSLV
B6: IRF8, overexpressed in HEK293 cells (protein, UniProt Q02556 1-426)
chain: MCDRNGGRRLRQWLIEQIDSSMYPGLIWENEEKSMFRIPWKHAGKQDYNQEVDASIFKAWAVFKGKFKEGDKAEPATWKTRLRCALNKSPDFEEVTDRSQLDISEPYKVYRIVPEEEQKCKLGVATAGCVNEVTEMECGRSEIDELIKEPSVDDYMGMIKRSPSPPEACRSQLLPDWWAQQPSTGVPLVTGYTTYDAHHSAFSQMVISFYYGGKLVGQATTTCPEGCRLSLSQPGLPGTKLYGPEGLELVRFPPADAIPSERQRQVTRKLFGHLERGVLLHSSRQGVFVKRLCQGRVFCSGNAVVCKGRPNKLERDEVVQVFDTSQFFRELQQFYNSQGRLPDGRVVLCFGEEFPDMAPLRSKLILVQIEQLYVRQLAEEAGKSCGAGSVMQAPEEPPPDQVFRMFPDICASHQRSFFRENQQITV
B7: TBK1-Flag, purified from HEK293 cells (enzyme, UniProt Q9UHD2 1-729)
chain: MQSTSNHLWLLSDILGQGATANVFRGRHKKTGDLFAIKVFNNISFLRPVDVQMREFEVLKKLNHKNIVKLFAIEEETTTRHKVLIMEFCPCGSLYTVLEEPSNAYGLPESEFLIVLRDVVGGMNHLRENGIVHRDIKPGNIMRVIGEDGQSVYKLTDFGAARELEDDEQFVSLYGTEEYLHPDMYERAVLRKDHQKKYGATVDLWSIGVTFYHAATGSLPFRPFEGPRRNKEVMYKIITGKPSGAISGVQKAENGPIDWSGDMPVSCSLSRGLQVLLTPVLANILEADQEKCWGFDQFFAETSDILHRMVIHVFSLQQMTAHKIYIHSYNTATIFHELVYKQTKIISSNQELIYEGRRLVLEPGRLAQHFPKTTEENPIFVVSREPLNTIGLIYEKISLPKVHPRYDLDGDASMAKAITGVVCYACRIASTLLLYQELMRKGIRWLIELIKDDYNETVHKKTEVVITLDFCIRNIEKTVKVYEKLMKINLEAAELGEISDIHTKLLRLSSSQGTIETSLQDIDSRLSPGGSLADAWAHQEGTHPKDRNVEKLQVLLNCMTEIYYQFKKDKAERRLAYNEEQIHKFDKQKLYYHATKAMTHFTDECVKKYEAFLNKSEEWIRKMLHLRKQLLSLTNQCFDIEEEVSKYQEYTNELQETLPQKMFTASSGIKHTMTPIYPSSNTLVEMTLGMKKLKEEMEGVVKELAENNHILERFGSLTMDGGLRNVDCL

Sequences of proteins named here, by UniProt entry; tags and fusion partners are left off.
UniProt P51451: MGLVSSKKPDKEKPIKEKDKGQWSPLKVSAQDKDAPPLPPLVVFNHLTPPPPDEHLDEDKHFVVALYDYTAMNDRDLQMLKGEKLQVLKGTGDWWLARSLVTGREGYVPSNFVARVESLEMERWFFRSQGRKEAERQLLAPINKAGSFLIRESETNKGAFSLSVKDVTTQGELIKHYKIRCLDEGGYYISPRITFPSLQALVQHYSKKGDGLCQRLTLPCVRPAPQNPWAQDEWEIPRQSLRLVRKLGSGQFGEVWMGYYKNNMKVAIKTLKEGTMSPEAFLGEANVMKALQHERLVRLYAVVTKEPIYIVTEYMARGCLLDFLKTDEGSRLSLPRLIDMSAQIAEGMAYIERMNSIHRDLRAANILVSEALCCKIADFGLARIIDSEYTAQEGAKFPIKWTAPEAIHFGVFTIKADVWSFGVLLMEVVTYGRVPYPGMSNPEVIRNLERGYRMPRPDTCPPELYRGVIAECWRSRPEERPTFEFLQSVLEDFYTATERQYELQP

We go through 7 molecules from PMC10621992.

No constants are given. Whether binding was seen depends on the method and setting. For some of these results: In cells and extracts the contact can be indirect. Some results given as binding are weak or reduced against the parent protein; the word gives no strength. For some of these results: Tags and fused reporters may be left off the sequences shown.

The first test has as its target BLK, overexpressed in HEK293 cells (human) (UniProt P51451). Description: co-IP.
As for B1, the binding result was “no binding”.
Consider B2, for which the binding entry is listed as “no binding”.
As for B3, the binding entry is on record as “no binding”.
For B4, the binding entry is “no binding”.
Regarding B5, the binding result was “binds”.
On to B6, for which the binding result is “no binding”.

Another test has as its target GST-BLK, prokaryotically expressed and purified (human) (UniProt P51451). Briefly: pull-down; both purified.
Take B7: the binding entry was “no binding”.
